The text below walks through data of PubChem BioAssay (NCATS).

Each structure is given as a SMILES string. “And” between values parts separate entries of the source, which are not always exact repeats. Equal values may be shown once. The list shows a part of the results. Shown are side measurements of this screen, not its main read-out; they come without a call. The list favours compounds with an active or inconclusive main result. Potencies come from curve fits of mixed quality, noted in brackets.
Tags tell the direction and shape of the fitted curve.

The first experiment in a line: qHTS Assay for Lipid Storage Modulators (AID 1519). The note with it: Drosophila S3 cells, BODIPY lipid droplet/cell ratio, laser cytometry; measured here: lipid (BODIPY) channel AC50; cells loaded with oleic acid. In short, it runs like this: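 Cells seeded at 5,000 per well were treated with compounds over a concentration series and loaded with oleic acid (400 uM, as added). Lipid droplet fluorescence (488 nm excitation, 500-530 nm channel) was read by laser-scanning cytometry and normalized to 20 uM Triacsin C.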
On the technique in general: Quantitative high-throughput screening tests each substance at several concentrations.
For orientation: AC50 means the concentration giving half of the maximal activity seen. In the case of `Cc1ccc(-c2nn(CC(C)(C)C)c3ncnc(N)c23)cc1`, the AC50 was 35.5 µM [rising, partial curve, poor fit].

In the case of `COCCn1c(=O)c(-c2cc(F)cc(F)c2)nc2cncnc21`, the AC50 is 12.6 µM [rising, partial curve].

Turning to `CC(C)=CCC/C(C)=C\COc1c2ccoc2cc2oc(=O)ccc12`, the AC50 was 1.78 µM [rising, full curve].

For the compound `COCCn1c(=O)c(-c2ccc(F)cc2)nc2cnc(OCc3ccccc3)nc21`, the AC50 is 0.708 µM [rising, full curve].

Take `CN(C)c1ncc2nc(CCc3ccccc3)c(=O)n(C3CC3)c2n1`: the half-maximal activity concentration (AC50) is 2.82 µM [rising, full curve].

Take `CCNc1ncc2nc(-c3ccc(OC)cc3)c(=O)n(Cc3ccc(F)cc3)c2n1`: the AC50 was 0.501 µM [rising, partial curve].

Consider `CN(Cc1ccco1)c1ncncc1-c1ccc2c(c1)OCO2`, for which the AC50 was 0.316 µM [rising, full curve].

In the case of `Cc1noc(C)c1-c1nccc(NCc2ccccc2)n1`, the concentration at half-maximal activity (AC50) was 3.55 µM [rising, full curve, poor fit].

On to `Cc1ccccc1-c1nc(N2CCN(C)CC2)c2ccccc2n1`, for which the AC50 was 11.2 µM [rising, partial curve, poor fit].

As for `COc1cccc(Cn2c(=O)c(-c3ccc(Cl)cc3)nc3cnc(OC)nc32)c1`, the AC50 is 1.41 µM [rising, full curve, poor fit].

As for `CN1CCN(c2ncc3nc(-c4ccccc4)c(=O)n(Cc4cccs4)c3n2)CC1`, the AC50 is 10 µM [rising, partial curve].

In the case of `O=C(c1cc(C(F)(F)F)cc(C(F)(F)F)c1)N1CCC2(CCCN(Cc3ccncc3)C2)CC1`, the AC50 is 7.08 µM [rising, partial curve].

On to `NCCc1cnc[nH]1`, for which the AC50 is 39.8 µM [rising, single point] and 14.1 µM [falling, partial curve, poor fit].

Turning to `COc1ccc2[nH]cc(CCNc3ncncc3-c3ccccc3OC)c2c1`, the AC50 is 2.24 µM [rising, partial curve].

With `CCCCN1CCC(CCC(=O)c2cc(Cl)c(N)cc2OC)CC1`, the half-maximal activity concentration (AC50) is 15.8 µM [rising, partial curve, poor fit].

Take `O=C(c1ccncc1)N1CCC[C@@]2(CCN(c3ccccc3)C2)C1`: the AC50 was 17.8 µM [rising, partial curve, poor fit].

`C=CCN1CCc2cc(O)c(O)cc2[C@H](c2ccccc2)C1`: the half-maximal activity concentration (AC50) was 28.2 µM [rising, partial curve, poor fit].

As to `COc1ccc(-n2c(=O)c(C)nc3cnc(Nc4cccc(OC)c4)nc32)cc1`, the AC50 was 2.24 µM [rising, partial curve, poor fit].

On to `COc1ccc2[nH]cc(CCNc3cc(-c4c(C)noc4C)ncn3)c2c1`, for which the AC50 is 0.631 µM [rising, full curve].

As to `CS(=O)(=O)N1CCC2(CC1)CN(c1ncccn1)C2`, the AC50 was 0.708 µM [rising, full curve].

The same experiment, now with this note: Drosophila S3 cells, BODIPY lipid droplet/cell ratio, laser cytometry; measured here: lipid channel max response; cells loaded with oleic acid.
Turning to `FC(F)(F)c1ccccc1-c1nc(NC2CC2)c2ccccc2n1`, the max response was 37.9%.

With `O=c1c(-c2ccccc2)nc2cncnc2n1C1CC1`, the max response stood at 31.2%.

For the compound `COc1ccc(-c2cc(=O)c3ccc(O)cc3o2)cc1`, the max response worked out at 88.3%.

For the compound `Cc1noc(C)c1-c1nc(Nc2ccccc2)c2ccccc2n1`, the max response was determined as 49.6%.

As to `COc1ccccc1N1CCN(CCCCNC(=O)c2ccc(-c3ccc(C(C)=O)cc3)cc2)CC1`, the max response amounted to 59.8%.

In the case of `Cn1c(=O)c(CCc2ccccc2)nc2cncnc21`, the max response amounted to 36.6%.

With `COCCNC(=O)COc1ccc(OCCNC[C@@H](O)COc2ccccc2)cc1`, the max response was 66.5%.

For the compound `Cc1cccc(CNc2ccnc(-c3ccc(N(C)C)cc3)n2)c1`, the max response was -91.6%.

Consider `Cc1cnc(CNc2nc(-c3cccc(NS(C)(=O)=O)c3)nc3ccccc23)cn1`, for which the max response turned out to be 42.4%.

For the compound `COc1cccc(Cn2c(=O)c(-c3ccc(Cl)cc3)nc3cnc(N4CCN(C)CC4)nc32)c1`, the max response was -19%.

With `c1cn(-c2cc(-c3ccc4c(c3)OCO4)ncn2)cn1`, the max response came out at 24.6%.

On to `CC(=O)Oc1cc(C(C)C)c(OCCN(C)C)cc1C`, for which the max response came to 47.9%.

As to `CS(=O)(=O)Nc1cccc(-c2nccc(NCc3cccs3)n2)c1`, the max response was 41.9%.

In the case of `OC[C@H]1O[C@@H](OC[C@H]2O[C@@H](O)[C@H](O)[C@@H](O)[C@@H]2O)[C@H](O)[C@@H](O)[C@@H]1O`, the max response is -29.2%.

Take `COc1ccc2[nH]cc(CCNc3ccnc(-c4c(C)noc4C)n3)c2c1`: the max response was found to be 32.5%.

Take `COc1ncc2nc(-c3cc(F)cc(F)c3)c(=O)n(C[C@H]3CCCO3)c2n1`: the max response was 33.2%.

Regarding `Cc1noc(C)c1-c1nc(N2CCN(C)CC2)c2ccccc2n1`, the max response came to 42.9%.

Consider `Cc1cnc(CNc2ccnc(-c3cccnc3)n2)cn1`, for which the max response was 48.7%.

Turning to `CC(=O)OC1CCC2(C)C3CCC4(C)C(CC5CCCCC54C(C)=O)C3CC(=O)[C@@]2(O)C1` (stereo not given in full), the max response stood at 75.9%.

Turning to `CC(C)(C)c1cc(O)c(C(C)(C)C)cc1O`, the max response came to 89%.

As to `Cc1ccc(-c2nn(CC(C)(C)C)c3ncnc(N)c23)cc1`, the max response came to 97.7%.

`COCCn1c(=O)c(-c2cc(F)cc(F)c2)nc2cncnc21`: the max response came out at 40.7%.

For the compound `CC(C)=CCC/C(C)=C\COc1c2ccoc2cc2oc(=O)ccc12`, the max response stood at 114%.

In the case of `COCCn1c(=O)c(-c2ccc(F)cc2)nc2cnc(OCc3ccccc3)nc21`, the max response is -17.9%.

With `CN(C)c1ncc2nc(CCc3ccccc3)c(=O)n(C3CC3)c2n1`, the max response worked out at 42.4%.

Take `CCNc1ncc2nc(-c3ccc(OC)cc3)c(=O)n(Cc3ccc(F)cc3)c2n1`: the max response turned out to be 9.93%.

Regarding `CN(Cc1ccco1)c1ncncc1-c1ccc2c(c1)OCO2`, the max response came to 54.7%.

`Cc1noc(C)c1-c1nccc(NCc2ccccc2)n1`: the max response amounted to 47.8%.

As for `Cc1ccccc1-c1nc(N2CCN(C)CC2)c2ccccc2n1`, the max response was determined as 57.2%.

As for `COc1cccc(Cn2c(=O)c(-c3ccc(Cl)cc3)nc3cnc(OC)nc32)c1`, the max response was 33.3%.

For the compound `CN1CCN(c2ncc3nc(-c4ccccc4)c(=O)n(Cc4cccs4)c3n2)CC1`, the max response amounted to 39.6%.

As for `O=C(c1cc(C(F)(F)F)cc(C(F)(F)F)c1)N1CCC2(CCCN(Cc3ccncc3)C2)CC1`, the max response was 23.6%.

Regarding `NCCc1cnc[nH]1`, the max response is 37% and 66.5%.

As for `COc1ccc2[nH]cc(CCNc3ncncc3-c3ccccc3OC)c2c1`, the max response stood at 12.8%.

Regarding `CCCCN1CCC(CCC(=O)c2cc(Cl)c(N)cc2OC)CC1`, the max response turned out to be 65.7%.

With `O=C(c1ccncc1)N1CCC[C@@]2(CCN(c3ccccc3)C2)C1`, the max response worked out at 41.7%.

With `C=CCN1CCc2cc(O)c(O)cc2[C@H](c2ccccc2)C1`, the max response came out at 58.3%.

Regarding `COc1ccc(-n2c(=O)c(C)nc3cnc(Nc4cccc(OC)c4)nc32)cc1`, the max response was found to be 20.3%.

Turning to `COc1ccc2[nH]cc(CCNc3cc(-c4c(C)noc4C)ncn3)c2c1`, the max response is 31.7%.

For `CS(=O)(=O)N1CCC2(CC1)CN(c1ncccn1)C2`, the max response amounted to 40.4%.
